Measurements reported in paper PMC8641752.
Where a chain is given by its changes, count along the chain named. No constants are given. Whether binding was seen depends on the method and setting. In cells and extracts the contact can be indirect. Some binding calls cover weakened binding; strength is not graded here. For some of these results: Sequences can lack the tags named with a protein.

Sequences of proteins named here, by UniProt entry; tags and fusion partners are left off.
UniProt P25694: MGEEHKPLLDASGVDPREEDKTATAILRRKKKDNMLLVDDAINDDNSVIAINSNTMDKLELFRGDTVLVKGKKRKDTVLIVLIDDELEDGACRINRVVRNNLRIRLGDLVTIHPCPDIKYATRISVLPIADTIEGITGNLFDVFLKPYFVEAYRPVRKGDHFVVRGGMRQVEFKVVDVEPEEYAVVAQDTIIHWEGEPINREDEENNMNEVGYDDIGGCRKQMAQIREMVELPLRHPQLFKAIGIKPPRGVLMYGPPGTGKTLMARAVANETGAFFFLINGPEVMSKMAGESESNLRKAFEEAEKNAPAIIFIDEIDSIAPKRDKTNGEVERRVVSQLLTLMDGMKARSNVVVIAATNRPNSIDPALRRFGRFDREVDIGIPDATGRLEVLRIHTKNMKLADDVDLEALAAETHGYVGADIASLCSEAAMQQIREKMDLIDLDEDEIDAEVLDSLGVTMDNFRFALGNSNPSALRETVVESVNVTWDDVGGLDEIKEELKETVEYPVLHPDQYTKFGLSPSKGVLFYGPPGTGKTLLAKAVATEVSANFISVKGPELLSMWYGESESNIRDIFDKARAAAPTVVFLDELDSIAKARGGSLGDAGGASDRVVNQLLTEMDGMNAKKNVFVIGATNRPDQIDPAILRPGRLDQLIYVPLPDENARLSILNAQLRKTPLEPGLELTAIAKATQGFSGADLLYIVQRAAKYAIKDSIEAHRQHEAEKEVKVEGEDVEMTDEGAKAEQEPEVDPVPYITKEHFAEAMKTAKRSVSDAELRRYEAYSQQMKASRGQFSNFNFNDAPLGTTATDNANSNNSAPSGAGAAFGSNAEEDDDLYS

Key:
[1] = target: T1, Dfm1-Q101R (S. cerevisiae) (UniProt Q12743); test: co-sedimentation; Cdc48 microsome association assay: yeast lysate split into cytosolic supernatant and microsomal pellet by centrifugation; Cdc48 in the pellet of strains expressing the variant, blot with anti-Cdc48
T1 sequence: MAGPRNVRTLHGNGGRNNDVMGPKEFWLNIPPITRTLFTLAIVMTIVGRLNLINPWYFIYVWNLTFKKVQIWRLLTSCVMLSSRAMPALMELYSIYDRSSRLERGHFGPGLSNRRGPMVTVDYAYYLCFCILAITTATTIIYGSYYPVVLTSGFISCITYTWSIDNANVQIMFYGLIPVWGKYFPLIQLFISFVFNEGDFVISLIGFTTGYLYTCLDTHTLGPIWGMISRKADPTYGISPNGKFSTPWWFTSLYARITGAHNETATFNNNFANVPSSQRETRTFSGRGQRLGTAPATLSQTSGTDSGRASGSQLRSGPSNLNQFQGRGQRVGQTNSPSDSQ

[2] = target: T2, Dfm1-L64V (S. cerevisiae) (UniProt Q12743); test: as above
T2 sequence: T1 sequence with L64V, R101Q

[3] = target: T3, Dfm1-F58S (S. cerevisiae) (UniProt Q12743); test: as above
T3 sequence: T1 sequence with F58S, R101Q

Hmg2-GFP (S. cerevisiae) [4] = target: T4, Hmg2-GFP (S. cerevisiae) (UniProt P12684); test: co-IP; substrate (Hmg2-GFP, Ste6*-GFP, CPY*-GFP with GFP-Trap; Pdr5*-Myc with Myc Trap) precipitated from yeast microsomes solubilised in Tween IP buffer (500 mM NaCl, 50 mM Tris pH 7.5, 10 mM EDTA, 1.5% Tween-20), overnight 4°C; blots with anti-HA, anti-Cdc48
T4 sequence (chain, polyubiquitin chain conjugated in cells (sites not printed)): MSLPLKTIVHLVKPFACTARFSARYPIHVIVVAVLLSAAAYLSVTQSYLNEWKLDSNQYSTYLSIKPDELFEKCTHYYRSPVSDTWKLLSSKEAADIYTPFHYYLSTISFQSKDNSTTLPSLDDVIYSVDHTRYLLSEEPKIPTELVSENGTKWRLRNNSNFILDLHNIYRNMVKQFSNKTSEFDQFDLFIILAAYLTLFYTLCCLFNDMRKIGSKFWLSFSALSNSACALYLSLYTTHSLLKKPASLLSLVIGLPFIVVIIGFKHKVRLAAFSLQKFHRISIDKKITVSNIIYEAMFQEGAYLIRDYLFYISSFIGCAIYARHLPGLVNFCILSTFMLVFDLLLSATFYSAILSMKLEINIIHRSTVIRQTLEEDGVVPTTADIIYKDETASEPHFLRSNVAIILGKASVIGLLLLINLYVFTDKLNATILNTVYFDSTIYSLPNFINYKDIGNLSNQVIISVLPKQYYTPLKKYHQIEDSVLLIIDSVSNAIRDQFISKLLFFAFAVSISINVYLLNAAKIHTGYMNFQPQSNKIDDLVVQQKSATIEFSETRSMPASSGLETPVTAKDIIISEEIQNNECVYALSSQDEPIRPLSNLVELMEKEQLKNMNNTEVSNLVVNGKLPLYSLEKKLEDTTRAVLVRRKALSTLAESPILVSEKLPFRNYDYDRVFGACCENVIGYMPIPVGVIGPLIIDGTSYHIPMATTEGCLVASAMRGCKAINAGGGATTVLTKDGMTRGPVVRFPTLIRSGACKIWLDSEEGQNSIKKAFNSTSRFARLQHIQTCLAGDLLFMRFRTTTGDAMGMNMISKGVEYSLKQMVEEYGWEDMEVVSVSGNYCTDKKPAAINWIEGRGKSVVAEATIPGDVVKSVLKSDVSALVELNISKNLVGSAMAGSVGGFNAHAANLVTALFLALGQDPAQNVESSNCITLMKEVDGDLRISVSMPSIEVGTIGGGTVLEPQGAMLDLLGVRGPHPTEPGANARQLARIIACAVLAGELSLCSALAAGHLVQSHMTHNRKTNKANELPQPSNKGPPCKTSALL

Hmg2-GFP (S. cerevisiae) [5] = target: T4, Hmg2-GFP (S. cerevisiae); test: condition: only with added free Lys48-linked polyubiquitin chains (2, 5, and 10 μg); co-IP; free polyubiquitin competition test: solubilised microsomes incubated with Lys48-linked polyubiquitin chains (2, 5, 10 μg) or buffer for one hour at 4°C, then GFP-Trap precipitation of Hmg2-GFP; blots for Cdc48, Dfm1-HA
Hmg2-GFP (S. cerevisiae) [6] = target: T4, Hmg2-GFP (S. cerevisiae); test: condition: only after removal of the ubiquitin chain from Hmg2-GFP with Usp2Core; co-IP; solubilised microsomes treated with Usp2Core (5 μg, 1 hr, 37°C) to remove ubiquitin from Hmg2-GFP, then GFP-Trap precipitation of Hmg2-GFP; blots for ubiquitin, Cdc48, Dfm1-HA
Hmg2-GFP (S. cerevisiae) [7] = target: T4, Hmg2-GFP (S. cerevisiae); test: co-IP; free polyubiquitin competition test: solubilised microsomes incubated with Lys48-linked polyubiquitin chains (2, 5, 10 μg) or buffer for one hour at 4°C, then GFP-Trap precipitation of Hmg2-GFP; blots for Cdc48, Dfm1-HA

binding [1]: binds
binding [2]: binds
binding [3]: binds
binding (Hmg2-GFP (S. cerevisiae) [4]): binds
binding (Hmg2-GFP (S. cerevisiae) [5]): no binding
binding (Hmg2-GFP (S. cerevisiae) [6]): no binding
binding (Hmg2-GFP (S. cerevisiae) [7]): binds
Substance: Cdc48 (from UniProt P25694 1-835)
